Experimental data: publication PMC6919601, “Identification of Plasmodium dipeptidyl aminopeptidase allosteric inhibitors by high throughput screening” (PLoS ONE, 2019)
Out of some 110,000 compounds screened, about 230 (0.21%) showed an effect of 50% or more. The list shows a part of the results.

target: DPAP1 (Plasmodium falciparum, UniProt Q8IIJ9); test: primary screen, percent inhibition; read by cleavage of a fluorogenic dipeptide substrate; higher = more effect of the substance; parameters: species or system P. falciparum D10 trophozoite lysates; single well
Sequence (Q8IIJ9 whole entry, looked up): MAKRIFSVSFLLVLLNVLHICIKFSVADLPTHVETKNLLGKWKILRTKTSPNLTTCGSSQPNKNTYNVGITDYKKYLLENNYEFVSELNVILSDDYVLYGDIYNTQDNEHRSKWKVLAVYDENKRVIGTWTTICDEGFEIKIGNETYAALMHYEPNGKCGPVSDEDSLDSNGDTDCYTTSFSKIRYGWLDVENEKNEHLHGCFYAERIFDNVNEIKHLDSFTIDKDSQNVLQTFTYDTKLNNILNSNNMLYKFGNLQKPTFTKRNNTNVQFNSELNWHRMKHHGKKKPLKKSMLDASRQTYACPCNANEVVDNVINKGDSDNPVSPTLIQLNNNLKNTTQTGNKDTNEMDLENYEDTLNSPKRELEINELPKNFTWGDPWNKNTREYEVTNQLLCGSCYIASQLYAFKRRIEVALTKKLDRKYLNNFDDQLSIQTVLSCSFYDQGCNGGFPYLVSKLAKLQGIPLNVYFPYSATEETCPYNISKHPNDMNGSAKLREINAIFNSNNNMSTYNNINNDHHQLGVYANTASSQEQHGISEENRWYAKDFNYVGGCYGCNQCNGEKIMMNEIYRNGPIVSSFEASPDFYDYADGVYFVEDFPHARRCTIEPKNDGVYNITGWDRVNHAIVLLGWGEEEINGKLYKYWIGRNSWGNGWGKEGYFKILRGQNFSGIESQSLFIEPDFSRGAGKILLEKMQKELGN
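Also: 30 min substrate incubation versus DMSO and 10 µM JCP410 controls.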

Structure (SMILES)	% Inhibition @ 10 uM [%]
CC1(C)CC(=O)C2=C(C1)N(c1ccccc1)C(N)=C(C(N)=O)C2c1ccc(Cl)cc1 (stereo not shown)	-1.2
COc1ccc(S(=O)(=O)N2CCN(Cc3ccccc3C(F)(F)F)CC2)cc1	4
O=C(O)C(=Cc1cccc([N+](=O)[O-])c1)C(=O)O	0.989
CC(NC(=O)C1CCN(c2cnccn2)CC1)c1ccccc1 (stereo not shown)	5.39
Cc1ccccc1C1OC2(C(=O)c3ccccc3C2=O)C2C(=O)N(C3CCCCC3)C(=O)C12 (stereo not shown)	2.69
O=S(=O)(N1CCCCC1)N1CCN(CC(O)COc2ccc3ccccc3c2)CC1 (stereo not shown)	-1.05
Cc1ccc(-n2ncc3c(NCCCN4CCCC4=O)ncnc32)c(C)c1	5.54
C=CCn1c(S)nnc1-c1ccc(C(C)(C)C)cc1	0.454
CC(=O)Nc1ccc(NC(=O)c2ccc(Cl)c(Cl)c2)cc1	-7.99
CCc1ccc(C2N3CC4(C)CN2CC(C)(C3)C4=O)cc1 (stereo not shown)	-3.49
CCCNC(=O)Cn1nc(CC)n2c(cc3sccc32)c1=O	1.8
CCOc1ccccc1C(=O)Nc1ccc(C(C)=O)cc1	-7.23
Cc1ccc(-c2c(CSC(=N)N)csc2C)cc1	40.9
COc1ccc(CNC2CC(C)(C)OCC2Cc2ccccc2)cc1 (stereo not shown)	-8.21
CC(C)(C)c1ccccc1NC(=O)c1ccc(Br)o1	-1.04
CCOc1cc(CN2CCN(c3ccccc3OC)CC2)ccc1O	0.605
COc1cc(C2CC(=O)NC3=C2C(=O)CC(c2ccccc2Cl)C3)cc(OC)c1OC (stereo not shown)	-2.87
CC1=C(c2ccc(C)c(C)c2)S(=O)(=O)N=C1NCCC1=CCCCC1	-4.68
CCOC(=O)C1=C(C)N(C)C(=O)NC1c1cc(OC)ccc1OC (stereo not shown)	0.345
O=C(Cc1ccccc1F)Nc1cccc2cccnc12	-0.884
CC(=O)N(CCCN(C)C)c1nc2ccc(F)cc2s1	-6.62
CC1CCc2c(C(=O)NCCC3=CCCCC3)csc2C1 (stereo not shown)	3.54
O=S(=O)(Nc1ccccc1)c1ccc(NS(=O)(=O)c2cc(Cl)ccc2Cl)cc1	2.64
CCOC(=O)c1cc2ccccc2nc1N	1.76
CC1=NN(c2cccc(S(N)(=O)=O)c2)C(=O)C1	0.937

Structure (SMILES)	% Inhibition @ 10 uM [%]
COc1ccc(NC(=O)c2sc3nc4c(cc3c2N)CCCC4)cc1Cl	1.17
O=C(CN(c1ccc(F)cc1)S(=O)(=O)c1ccccc1)Nc1cccc(Cl)c1	0.206
Cc1nc2nc(C)c(CCC(=O)NCC(C)c3ccccc3)c(C)n2n1 (stereo not shown)	-0.465
COc1ccc(-n2nnnc2C2CCN(S(=O)(=O)c3cccs3)CC2)cc1	-7.24
Cn1c(=O)[nH]c(=O)c2c1nc(Sc1nc3ccccc3[nH]1)n2Cc1ccc(Cl)cc1	-0.946
Cc1cc(C)c(NC(=O)CN2CCCCC2)c(C)c1	6.96
CN(C)CCN(Cc1ccccc1)Cc1cc(Cl)cc(Cl)c1O	-7.17
O=C(Cn1cnc2c(nnn2Cc2ccc(F)cc2)c1=O)NCc1ccc2c(c1)OCO2	-11.8
CCCCN1C(=O)CN(CCc2ccccc2)C(=O)C1c1ccc(OC)cc1 (stereo not shown)	-0.519
CC(C)CCN(C(C)c1cccs1)S(=O)(=O)c1csc(C(N)=O)c1 (stereo not shown)	1.22
COc1cc2c(cc1OC)C(c1cc(Br)ccc1O)N(C(C)=O)CC2 (stereo not shown)	0.98
COc1ccccc1NC(=O)Cc1cccc2ccccc12	5.66
COc1ccc(OCc2nn3c(-c4ccccc4Cl)nnc3s2)cc1	4.96
Cc1ccc(-c2nnn(CC(=O)N(c3cnc4ccccc4c3)C(C)C(=O)NCCC(C)C)n2)cc1 (stereo not shown)	-1.44
CCOC(=O)C1=C(C)NC(=O)NC1c1ccccc1O (stereo not shown)	3.16
CCOc1ccc(C(=O)/C=C/c2cn(CC(O)CN3CCOCC3)c3ccccc23)cc1 (stereo not shown)	7.77
O=c1c2cccnc2n(Cc2ccc(Cl)cc2)c(=O)n1CCc1ccccc1	-1.66
CC(=O)N1CCC(N[C@H]2CCCCNC2=O)CC1	0.273
COc1ccc(-c2cc(C(N)=O)[nH]n2)c(F)c1	2.7
COCc1nc2ccccc2n1Cc1ccc(Cl)c(Cl)c1	0.287
Cc1cc(O)nc(SCc2cc(=O)n3nc(C)sc3n2)n1	-3.95
COc1ccc(-c2cc(-c3ccc(C)cc3O)[nH]n2)cc1	-2.73
COc1ccc2[nH]c3c(c2c1)CCn1c-3nc2ccccc2c1=O	14
COc1ccc2[nH]c3nc4ccccc4nc3c2c1	-1.53
Cc1nn(-c2ccc(F)cc2)c(-n2cccc2)c1C(=O)NCCc1cccs1	-6.49

Structure (SMILES)	% Inhibition @ 10 uM [%]
CCCc1[nH]nc2c1C(c1ccc(OC)c(OC)c1OC)C(C#N)=C(N)O2 (stereo not shown)	-4.75
COc1cc(CN2CCN(C3CCC(C)CC3)CC2)cc(OC)c1OC (stereo not shown)	-2.34
c1ccc(OCCCN2CCOCC2)cc1	2.13
CC1CCc2c(sc(/N=C/N(C)C)c2C#N)C1 (stereo not shown)	-4.12
CCOc1ccc(C2C(C#N)=C(N)OC3=C2C(=O)CC(C)(C)C3)cc1OCC (stereo not shown)	-0.883
Cc1ccc(CS(=O)Cc2ccc(C(=O)NCCCc3ccccc3)o2)cc1 (stereo not shown)	-8.59
CCCCN1C(=O)CN(C2CCC(C)CC2)C(=O)C1c1ccc(OC(C)C)c(OC)c1 (stereo not shown)	-4.06
O=C(c1ccc(Cl)cc1)N1CCN(C/C=C/c2ccccc2)CC1	5.55
CCCCN(C)CCCNC(=O)c1cnn(-c2ccccc2)c1-n1cccc1	1.8
CCN(CC)CCN(CC)C1CCC(c2ccccc2)CC1 (stereo not shown)	2.22
N#CC1=C(N)Oc2c(oc(CO)cc2=O)C1c1ccc(SC(F)(F)F)cc1 (stereo not shown)	-7.3
Fc1cccc(-c2nc3c4ccccc4nc(S)n3n2)c1	12.2
CN1CCN(CCC/N=c2\c(N)c(O)oc3ccccc23)CC1	4.17
Cc1ccc(Cn2nnc3c(O)nc(C4CCN(C(=O)c5ccc(C(F)(F)F)cc5)CC4)nc32)cc1	3.66
CCOc1ccc(OCC)c(S(=O)(=O)N2CCN(c3ccc(C)c(C)c3)CC2)c1	5.63
COc1ccccc1N1CCN(S(=O)(=O)c2cc(C)c(Br)cc2C)CC1	-11.1
COc1cc(-n2c(C)nc3cc(C(=O)NCCN4CCOCC4)ccc32)cc(OC)c1OC	-2.17
CN(C(=O)C1CCCN(c2ncnc3onc(-c4ccc(F)cc4)c23)C1)C1CCCCC1 (stereo not shown)	-5.57
COc1cccc(-c2cccc(C(=O)N[C@@H](CC(C)C)C(=O)NCC#N)c2)c1	-3.48
Nc1ncnc2c1nc(SCC(=O)O)n2Cc1ccccc1	-3.5
CCOc1cc(C2NC(=O)NC(C)=C2C(=O)Nc2ccc(Cl)cc2)ccc1O (stereo not shown)	-4.69
O=c1c2cnn(-c3ccccc3)c2ncn1Cc1cccc2ccccc12	3.24
CCOc1ccccc1C1C(C(=O)OC)=CN(Cc2ccc(F)cc2)C=C1C(=O)OC	4.99
COc1ccc(C(=O)NCc2cccnc2)cc1	-0.132
CN(C(=O)c1ccc(Br)o1)C1CCS(=O)(=O)C1 (stereo not shown)	-8.3

Structure (SMILES)	% Inhibition @ 10 uM [%]
Cc1[nH]c2ccccc2c1-c1csc(-c2ccncc2)n1	4.11
CC1CN(C(=O)COc2ccc(Cl)cc2)C(C)CN1C(=O)COc1ccc(Cl)cc1 (stereo not shown)	7.16
O=C(c1ccc2nc(-c3ccccc3)c(-c3ccccc3)nc2c1)N1CCN(C(=O)c2ccco2)CC1	6.71
Cc1ccc(OCC(=O)NCc2nc(-c3ccc(Cl)cc3)no2)cc1	0.486
COC(=O)c1sccc1NC(=O)CSc1nnnn1-c1ccc2c(c1)OCO2	-0.403
CC(C)c1ccc(NC(=O)c2cnn(C)c2)cc1	-0.00273
Cc1ccc(NC(=O)c2ccc(Cn3cc(Br)cn3)o2)cc1	-5.49
COC(=O)C1=C(C)n2cnnc2NC1c1ccc(Cl)cc1 (stereo not shown)	-5
CCc1ccc(-n2c(C)cc(/C=C3/C(=N)N4OC(C)=CC4=NC3=O)c2C)cc1	-5.1
OB1Oc2ccccc2-c2ccccc21	-7.23
CCOc1ccc2c(c1)C(C)=CC(C)(C)N2CN1C(=O)c2ccccc2C1=O	-0.693
CCc1nc2ccccc2c(C(=O)Nc2ccc(F)cc2)c1C	-4.01
O=C1N/C(=C/c2ccco2)C(=O)N1c1ccc(Cl)cc1	4.25
COCCN1C(=O)c2ccccc2C(C(=O)N2CCC(C)CC2)C1c1cn(C)c2ccccc12 (stereo not shown)	2.42
Cc1ccc(-n2nc3c(=O)n(CCCC(=O)NCCN(C)C)nc(C)c3c2C)cc1	-2.12
O=C(c1ccc(COc2ccc(Br)cc2)o1)N1N=C(C(F)F)CC1(O)C(F)F (stereo not shown)	0.709
COc1ccccc1CN1CCN(Cc2cccc(F)c2)CC1	4.49
O=C1Cc2cc3c(cc2CCN1Cc1ccccc1)OCO3	2.79
Cc1ccc(OCc2nc(-c3ccc(Br)cc3)no2)cc1	1.64
O=S(=O)(c1ccccc1)c1nc(-c2cccs2)oc1N1CCOCC1	0.032
CC1=C(C(=O)Nc2ccc(Br)cc2)C(c2ccc(Cl)cc2Cl)NC(=O)N1 (stereo not shown)	1.28
COc1ccc(Cl)cc1-c1nc(-c2ccc(-n3cccc3)cc2)no1	2.99
COc1cc(OC)c(OC)cc1/C=C1\SC(N)=NC1=O	13.6
Cc1ccc(S(=O)(=O)N(CC(=O)Nc2ccc3c(c2)OCO3)c2ccccc2Cl)cc1	7.01
C=CCn1c(SCC(=O)NCc2ccc(C(=O)OCC)o2)nc2c1c(=O)n(C)c(=O)n2C	-6.25
